From article PMC4336329 (PLoS ONE, 2015)
Among all 310,000 compounds or so, about 14,000 (4.5%) showed an effect of 50% or more. Effects have a minus sign here. Some of the results follow.

Target: human ether-à-go-go-related gene (hERG) potassium channel (human, UniProt Q12809)
Test: primary screen, population patch clamp on CHO cells stably expressing hERG
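Further: peak tail current of the secondary pulse compared with the same well before compound.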

human ether-à-go-go-related gene (hERG) potassium channel, sequence (Q12809 whole entry, looked up): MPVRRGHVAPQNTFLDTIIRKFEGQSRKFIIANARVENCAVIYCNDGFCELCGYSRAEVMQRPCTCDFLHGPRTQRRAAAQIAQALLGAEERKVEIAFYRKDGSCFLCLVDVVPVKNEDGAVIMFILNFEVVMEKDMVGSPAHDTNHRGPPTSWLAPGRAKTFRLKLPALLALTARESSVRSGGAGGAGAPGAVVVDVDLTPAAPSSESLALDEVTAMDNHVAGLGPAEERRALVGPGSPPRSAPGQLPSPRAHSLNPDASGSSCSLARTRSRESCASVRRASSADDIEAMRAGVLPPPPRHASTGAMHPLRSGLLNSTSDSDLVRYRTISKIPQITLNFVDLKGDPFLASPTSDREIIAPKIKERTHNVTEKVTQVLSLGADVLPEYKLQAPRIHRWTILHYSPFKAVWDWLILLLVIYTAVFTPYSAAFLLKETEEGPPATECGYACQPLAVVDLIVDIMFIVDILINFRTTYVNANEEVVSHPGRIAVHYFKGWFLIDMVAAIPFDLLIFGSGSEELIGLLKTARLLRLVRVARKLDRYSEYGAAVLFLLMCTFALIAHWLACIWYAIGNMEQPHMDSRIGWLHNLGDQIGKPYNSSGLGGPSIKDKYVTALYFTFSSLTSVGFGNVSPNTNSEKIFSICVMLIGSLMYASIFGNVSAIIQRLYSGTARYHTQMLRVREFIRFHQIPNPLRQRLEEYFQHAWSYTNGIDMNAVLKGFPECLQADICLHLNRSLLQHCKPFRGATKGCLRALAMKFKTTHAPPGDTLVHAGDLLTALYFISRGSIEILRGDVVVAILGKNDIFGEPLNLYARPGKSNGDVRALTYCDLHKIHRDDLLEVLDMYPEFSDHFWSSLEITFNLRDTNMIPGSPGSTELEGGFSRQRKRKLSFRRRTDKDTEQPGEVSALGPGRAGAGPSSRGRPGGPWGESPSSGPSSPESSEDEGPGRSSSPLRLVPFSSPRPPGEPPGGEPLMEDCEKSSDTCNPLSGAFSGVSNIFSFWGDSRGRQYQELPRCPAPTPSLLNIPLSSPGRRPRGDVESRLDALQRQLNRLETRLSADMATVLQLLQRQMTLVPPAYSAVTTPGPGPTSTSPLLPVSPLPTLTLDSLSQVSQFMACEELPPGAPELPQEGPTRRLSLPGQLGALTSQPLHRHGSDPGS

| SMILES | hERG current change (%, negative = inhibition) at 10uM |
| --- | --- |
| Cc1c(C(=O)Nc2c(C)n(C)n(-c3ccccc3)c2=O)oc2ccccc12 | 15.8% |
| O=C(COc1cccnc1[N+](=O)[O-])N1CCN(S(=O)(=O)c2ccc3ccccc3c2)CC1 | -25.1% |
| CCCc1nc2ccccc2n1C(=S)SC | 12.8% |
| CC1CCN(c2ccc([N+](=O)[O-])cc2C(=O)NCC2CCCO2)CC1 (stereo not drawn) | -8.39% |
| CCn1c(/C=C/c2c[nH]c3ccccc23)nc2ccccc2c1=O | 20.5% |
| CCCN(C(=O)Cc1nc(N)n[nH]1)C1(C(=O)Nc2ccccc2C)CCCCC1 | 9.86% |
| CCOC(=O)c1cnc2c(-c3ccccc3OC)c(C)nn2c1C | 12.6% |
| CC(C)CCNC(=O)c1cc(C(=O)c2cc(Br)ccc2O)cn(CCC(C)C)c1=O | 16.8% |
| CCC(C)(C)n1nnnc1C(c1ccccn1)N1CCOCC1 (stereo not drawn) | -6.99% |
| COc1ccc(CN2C(=NC(=O)C3CCCO3)SC3CS(=O)(=O)CC32)cc1OC (stereo not drawn) | 16.8% |
| CCOc1ncccc1C(=O)N(CC)CC(=O)NCc1ccc(F)cc1 | 7.12% |
| COc1ccccc1-c1nnc(SCC(=O)c2c(N)n(C3CC3)c(=O)[nH]c2=O)n1C | 9.95% |
| COC(=O)Cn1cc(C(=O)C(F)(F)F)c2ccccc21 | 20% |
| CCOc1cc(S(=O)(=O)NCc2ccccn2)ccc1Cl | -11.5% |
| CN(C)CCNC(=O)C(C(=O)c1ccccc1)n1ccccc1=O.Cl (stereo not drawn) | 24.2% |
| Cl.OCCCCCNc1ncnc2ccccc12 | -0.162% |
| COc1ccccc1-c1nn(-c2ccccc2)cc1C(=O)N1CCN(C(=O)c2ccco2)CC1 | -36% |
| Cc1cccc(NC(=O)c2ccc(NC(C)c3ccccc3)c([N+](=O)[O-])c2)n1 (stereo not drawn) | 2.29% |
| NNC(=O)CN1CCN(c2ncc(C(F)(F)F)cc2Cl)CC1 | -3.54% |
| CCCC(=O)NC(Nc1ccc(S(=O)(=O)Nc2cc(C)on2)cc1)(C(F)(F)F)C(F)(F)F | 17.2% |
| CCn1nnnc1SCCSc1nnnn1CC | -5.72% |
| CSc1cccc(NC(=S)NN(C)C)c1 | 15.5% |
| COc1ccc(Br)cc1S(=O)(=O)n1ccnc1C | -1.19% |

| SMILES | hERG current change (%, negative = inhibition) at 10uM |
| --- | --- |
| NC(=O)Cc1ccc(C(=O)c2ccccc2)s1 | 7.3% |
| COc1ccc(-c2nn(-c3ccccc3)cc2C(=O)NCC(c2cccs2)N2CCOCC2)cc1 (stereo not drawn) | -30.2% |
| COc1cc(/C=C/C(=O)OCC(=O)N2CCN(C(=O)c3ccco3)CC2)ccc1O | 2.55% |
| CC(=O)Oc1ccc2c(=O)oc(-c3ccc([N+](=O)[O-])cc3)nc2c1 | 1.56% |
| CC(C)(C)c1nnc(SCC(=O)c2ccccc2)n(N)c1=O | -3.91% |
| CNc1cncc(C(=O)O)c1 | 7.43% |
| CCOC(=O)c1c(N)sc(C(=O)N2CCOCC2)c1C | 1.47% |
| CC1=NOC(=O)/C1=C\c1ccc(-c2cc(Cl)ccc2Cl)o1 | 19.1% |
| CN(C)Cc1ccc(-c2nc3cccc4c3n2CCNC4=O)cc1 | -12.9% |
| CC(=O)Nc1ccc(S(=O)(=O)N2CCC(C(=O)NCCC(=O)NCc3ccccc3)CC2)cc1 | 10.1% |
| C#CCNC(=O)C1=C[C@H](c2ccc(C#C)cc2)C[C@H](OCc2ccc(CO)cc2)O1 | -24.2% |
| CN(C)c1ccc(/C=N/Nc2cc(N3CCOCC3)nc(N3CCOCC3)n2)cc1 | -4.78% |
| CCc1ccc(CC2(O)CC(C)N(C)CC2C)cc1 (stereo not drawn) | -29.7% |
| COC(=O)c1scc(C)c1S(=O)(=O)Nc1ccc(C)cc1 | 15.3% |
| Cc1cc(C(=S)N2CCOCC2)c(C)n1-c1ccc(F)cc1 | -12.6% |
| COc1cccc(N2CCN(CC(=O)NCc3cccs3)CC2)c1 | -3.18% |
| COc1cc(CC(=O)OCC(=O)Nc2cc([N+](=O)[O-])ccc2Cl)cc(OC)c1OC | -50% |
| Cc1cccc(-c2nnc(SCC(=O)Nc3cc(C)on3)n2C)c1 | 1.68% |
| Cc1cccc(S(=O)(=O)c2c(C)cc(C)nc2Cl)c1 | -4.43% |
| Cn1nnc2cc(NC(=O)Nc3cccc(Cl)c3)ccc21 | 7.8% |
| O=C1CC(c2cccc(F)c2)c2c(c3ccccc3[nH]c2=O)O1 (stereo not drawn) | 16% |
| COc1cc(NC(=O)c2ccc(NC3=NC4CS(=O)(=O)CC4S3)cc2)cc(OC)c1 (stereo not drawn) | -3.08% |
